Experimental data reported in the supplement of paper PMC4604168 (melanoma cell lines).
The other results are listed elsewhere or left out. Repeats are few or missing, and single values can be far off.
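Further: cell number obtained by counting DAPI-stained nuclei in high-throughput microscope images with image analysis software, screen run in 1,536-well plates.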

These molecules were tested on IPC-298 (assay: cell count relative to DMSO control; melanoma cells; higher = more viable cells). Conditions: library dose: low library concentration; 72 h.
Work on `COc1ccc(C2=N[C@@H](c3ccc(Cl)cc3)[C@@H](c3ccc(Cl)cc3)N2C(=O)N2CCNC(=O)C2)c(OC(C)C)c1` [Nutlin-3] + OCc1c[nH]c2ccccc12 [Indole-3-carbinol] (first compound 0.1 µM, partner dose 0.8 µM) yielded a cell count of 106%. For `COc1ccc(C2=N[C@@H](c3ccc(Cl)cc3)[C@@H](c3ccc(Cl)cc3)N2C(=O)N2CCNC(=O)C2)c(OC(C)C)c1` [Nutlin-3] + CS(=O)(=O)CCNCc1ccc(-c2ccc3ncnc(Nc4ccc(OCc5cccc(F)c5)c(Cl)c4)c3c2)o1 [lapatinib] (first compound 0.1 µM, partner dose 0.8 µM), the cell count was 92.7%. Molecule `Cc1cn(-c2cc(NC(=O)c3ccc(C)c(Nc4nccc(-c5cccnc5)n4)c3)cc(C(F)(F)F)c2)cn1` [nilotinib] + CC(=O)c1c(C)c2cnc(Nc3ccc(N4CCNCC4)cn3)nc2n(C2CCCC2)c1=O [palbociclib] (first compound 0.2 µM, partner dose 0.04 µM) has a cell count of 87.2%. Molecule `Cc1cn(-c2cc(NC(=O)c3ccc(C)c(Nc4nccc(-c5cccnc5)n4)c3)cc(C(F)(F)F)c2)cn1` [nilotinib] + CCN(CC)CCNC(=O)c1c(C)[nH]c(/C=C2\C(=O)Nc3ccc(F)cc32)c1C [sunitinib] (first compound 0.2 µM, partner dose 0.4 µM) has a cell count of 99.2%. In the case of `Cc1cc(Nc2cc(N3CCN(C)CC3)nc(/C=C/c3ccccc3)n2)n[nH]1` + COc1ccc(Cl)c(Nc2nc3ccccc3nc2NS(=O)(=O)c2cccc(NC(=O)C(C)(C)N)c2)c1 [XL147] (first compound 0.04 µM, partner dose 0.8 µM), the cell count is reported as 93%.
